Results published in patent US20260216365A1, “ANTIBODY-DRUG CONJUGATES AGAINST THE RECEPTOR TYROSINE KINASE EPHA5” (Rutgers, The State University of New Jersey, priority 2021, published 2026).

Assays:
H460-derived xenograft = H460-derived xenograft model of human lung cancer; conditions: ADC 10 mg/kg i.v. every 5 days, 3 doses; for number of tumors with full regression: n=9 (MMAE ADC), n=8 (SN-38 ADC)
A549-derived xenograft = A549-derived xenograft model of human lung cancer; conditions: for change in body weight, before first dose versus termination: ADC 10 mg/kg i.v.
[1] = tested on: H522, H460, A549 and H1299 cells; test: Incucyte cytotoxicity, cell confluence over time; type: cell-based, human
[2] = tested on: triple-negative invasive ductal carcinoma breast tumor PDX; test: Patient-derived xenograft (PDX) of triple-negative invasive ductal carcinoma of the breast (Example 4); type: in vivo, mouse; conditions: 5 doses of 10 mg/kg every 7 days; control tumors reached endpoints within 16 days
H522-derived xenograft = H522-derived xenograft model of human lung cancer; conditions: ADC 10 mg/kg i.v. weekly, 3 doses; for tumor response: VH5Vk3 ADC: first study, n=10
PDX TM00096 (BR085F) = test: PDX model TM00096 of triple negative breast cancer; type: in vivo, mouse; conditions: for change in body weight before and after treatment: 10 mg/kg weekly, 5 doses (ADC1, ADC2) or 4 doses (ADC3, ADC4), here ADC2 = VH4Vk3-ThioBridge-VCP-MMAE; for weight of removed tumors compared to PBS: 4 weekly doses 10 mg/kg; for tumor volume response: 4 weekly doses 10 mg/kg tail vein, ADC3 = VH5Vk3-, ADC4 = VH4Vk3-ThioBridge-VCP-(SN-38)2
[3] = ADC 10 mg/kg i.v. weekly, 3 doses, ADC group n=5

Molecule | change in body weight, before first dose versus termination (H460-derived xenograft) | number of tumors with full regression (H460-derived xenograft) | change in body weight, before first dose versus termination (A549-derived xenograft) | number of tumors with full regression (A549-derived xenograft; [3]) | number of tumors with partial regression (A549-derived xenograft; [3]) | time for which partial regression was sustained (entirety of the study) (A549-derived xenograft; mouse 4) | ADC-induced cell death (decrease of cell confluence) ([1]; EphA5 expression H522 (++++)>H460 (+++)>A549 (++)=H1299 (++)) | tumor growth [2] | change in body weight, before first dose versus termination (H522-derived xenograft) | tumor response (H522-derived xenograft) | change in body weight before and after treatment (PDX TM00096 (BR085F)) | weight of removed tumors compared to PBS (PDX TM00096 (BR085F)) | tumor volume response (PDX TM00096 (BR085F)) | ADC-induced cell death (decrease of cell confluence) [1] | number of tumors with partial regression (H460-derived xenograft; n=9) | tumor response (A549-derived xenograft; ADC 10 mg/kg i.v. weekly, 3 doses) | day until which partial regressions were observed (A549-derived xenograft; ADC 10 mg/kg weekly, days 1-20, tumors then progressed until day 20)
VH4Vk3-ThioBridge®-VCP-MMAE: VH4Vk3 antibody, ThioBridge disulfide rebridging, Val-Cit-PAB linker, MMAE payload, DAR 4; called ADC2 only in Example 5 (conjugate) heavy: EVQLVESGGGLVQPGGSLKLSCAASGFTFSTFGIHWVRQAPGKGLEWVAYISGASTTIYYADTVKGRFTISRDNSKNTLYLQMNSLRAEDTAVYYCARYGTSFPYGLDYWGQGTLVTVSSASTKGPSVFPLAPSSKSTSGGTAALGCLVKDYFPEPVTVSWNSGALTSGVHTFPAVLQSSGLYSLSSVVTVPSSSLGTQTYICNVNHKPSNTKVDKRV[letters of human IgG1 Fc left out] light: DIVMTQSPDSLAVSLGERATINCKASQSVDYDGDSYMNWYQQKPGKAPKLLIYGASNLESGIPDRFSGSGSGTDFTLTISRLEPEDAAVYYCQQSNEDPFTFGQGTKLEIKRTVAAPSVFIFPPSDEQLKSGTASVVCLLNNFYPREAKVQWKVDNALQSGNSQESVTEQDSKDSTYSLSSTLTLSKADYEKHKVYACEVTHQGLSSPVTKSFNRGEC | no changes in body weight | 2 | no significant changes in body weight | 4 | One | 32 days | increasing amounts of ADC induced cell death which is dependent on the levels of expression of the target EphA5 | little measurable tumor growth | no significant changes in body weight | Full regression was observed for all ADC-treated tumors | – | – | – | – | – | – | –
VH4Vk3-ThioBridge®-(VCP-SN-38)2 (conjugate) heavy: EVQLVESGGGLVQPGGSLKLSCAASGFTFSTFGIHWVRQAPGKGLEWVAYISGASTTIYYADTVKGRFTISRDNSKNTLYLQMNSLRAEDTAVYYCARYGTSFPYGLDYWGQGTLVTVSSASTKGPSVFPLAPSSKSTSGGTAALGCLVKDYFPEPVTVSWNSGALTSGVHTFPAVLQSSGLYSLSSVVTVPSSSLGTQTYICNVNHKPSNTKVDKRV[letters of human IgG1 Fc left out] light: DIVMTQSPDSLAVSLGERATINCKASQSVDYDGDSYMNWYQQKPGKAPKLLIYGASNLESGIPDRFSGSGSGTDFTLTISRLEPEDAAVYYCQQSNEDPFTFGQGTKLEIKRTVAAPSVFIFPPSDEQLKSGTASVVCLLNNFYPREAKVQWKVDNALQSGNSQESVTEQDSKDSTYSLSSTLTLSKADYEKHKVYACEVTHQGLSSPVTKSFNRGEC | no changes in body weight | 1 | no significant changes in body weight | – | – | – | – | – | no significant changes in body weight | Full regression was observed for all ADC-treated tumors | no significant changes in body weight | no significant reduction in weight as compared to placebo | delayed tumor growth followed by rapid re-growth and early termination due to tumor burden | increasing amounts of ADC induced cell death which is dependent on the levels of expression of the target EphA5 | – | – | –
VH5Vk3-ThioBridge®-(VCP-SN-38)2 (conjugate) heavy: EVQLVESGGGLVQPGGSLKLSCAASGFTFSTFGIHWVRQAPGKGLEWVAYISGASTTIYYADSVKGRFTISRDNSKNTLYLQMNSLRAEDTAVYYCARYGTSFPYGLDYWGQGTLVTVSSASTKGPSVFPLAPSSKSTSGGTAALGCLVKDYFPEPVTVSWNSGALTSGVHTFPAVLQSSGLYSLSSVVTVPSSSLGTQTYICNVNHKPSNTKVDKRV[letters of human IgG1 Fc left out] light: DIVMTQSPDSLAVSLGERATINCKASQSVDYDGDSYMNWYQQKPGKAPKLLIYGASNLESGIPDRFSGSGSGTDFTLTISRLEPEDAAVYYCQQSNEDPFTFGQGTKLEIKRTVAAPSVFIFPPSDEQLKSGTASVVCLLNNFYPREAKVQWKVDNALQSGNSQESVTEQDSKDSTYSLSSTLTLSKADYEKHKVYACEVTHQGLSSPVTKSFNRGEC | no significant changes in body weight | – | No significant differences in the body weights | – | – | – | – | – | – | – | no significant changes in body weight | slightly reduced in weight compared to the PBS control group | delayed tumor growth followed by rapid re-growth and early termination due to tumor burden | increasing amounts of ADC induced cell death which is dependent on the levels of expression of the target EphA5 | 7 | Partial regressions | 14 days

Where two headings read alike, the source gives them in different places.
